Data as given in the supplement of paper PMC8728848.
The list shows a part of the results.

How the values were obtained:
Experiment in all cases: glycan array binding signal (z-score within array); higher = stronger binding
Details in all cases: glycan notation: IUPAC condensed, linker removed
[1] = molecular target: GlcNAc(b1-2)[GlcNAc(b1-4)]Man(a1-3)[GlcNAc(b1-4)][GlcNAc(b1-2)[GlcNAc(b1-6)]Man(a1-6)]Man(b1-4)GlcNAc(b1-4)GlcNAc
Outline: (§1)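 Negative Z-scores can be read as non-binding. The Z-score is calculated within each array and then averaged across arrays of one protein sequence at different concentrations or buffers and across linkers. Arrays, 3228 in all, were curated from the Consortium for Functional Glycomics database and kept only where the protein sequence was available.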

[2] = molecular target: GlcNAc(b1-2)[GlcNAc(b1-4)]Man(a1-3)[GlcNAc(b1-4)][GlcNAc(b1-2)[GlcNAc(b1-6)]Man(a1-6)]Man(b1-4)GlcNAc(b1-4)[Fuc(a1-6)]GlcNAc
Outline: as §1

[3] = molecular target: GlcNAc(b1-2)[GlcNAc(b1-6)]Man(a1-6)[GlcNAc(b1-2)Man(a1-3)]Man(b1-4)GlcNAc(b1-4)GlcNAc
Outline: as §1

[4] = molecular target: GlcNAc(b1-2)[GlcNAc(b1-6)]Man(a1-6)[GlcNAc(b1-2)Man(a1-3)]Man(b1-4)GlcNAc(b1-4)[Fuc(a1-6)]GlcNAc
Outline: as §1

[5] = molecular target: GlcNAc(b1-2)[GlcNAc(b1-6)]Man(a1-6)[GlcNAc(b1-4)][GlcNAc(b1-2)Man(a1-3)]Man(b1-4)GlcNAc(b1-4)GlcNAc
Outline: as §1

GlcNAc(b1-3)Fuc = molecular target: GlcNAc(b1-3)Fuc
Outline: as §1

GlcNAc(b1-3)Gal = molecular target: GlcNAc(b1-3)Gal
Outline: as §1

[6] = molecular target: GlcNAc(b1-3)Gal(b1-3)GalNAc
Outline: as §1

GlcNAc(b1-3)Gal(b1-4)Glc = molecular target: GlcNAc(b1-3)Gal(b1-4)Glc
Outline: as §1

[7] = molecular target: GlcNAc(b1-3)Gal(b1-4)GlcNAc
Outline: as §1

[8] = molecular target: GlcNAc(b1-3)Gal(b1-4)GlcNAc(b1-2)Man(a1-3)[GlcNAc(b1-3)Gal(b1-4)GlcNAc(b1-2)Man(a1-6)]Man(b1-4)GlcNAc(b1-4)GlcNAc
Outline: as §1

[9] = molecular target: GlcNAc(b1-3)Gal(b1-4)GlcNAc(b1-2)Man(a1-3)[GlcNAc(b1-3)Gal(b1-4)GlcNAc(b1-2)Man(a1-6)]Man(b1-4)GlcNAc(b1-4)[Fuc(a1-6)]GlcNAc
Outline: as §1

[10] = molecular target: GlcNAc(b1-3)Gal(b1-4)GlcNAc(b1-2)[GlcNAc(b1-3)Gal(b1-4)GlcNAc(b1-6)]Man(a1-6)[GlcNAc(b1-3)Gal(b1-4)GlcNAc(b1-2)Man(a1-3)]Man(b1-4)GlcNAc(b1-4)GlcNAc
Outline: as §1

[11] = molecular target: GlcNAc(b1-3)Gal(b1-4)GlcNAc(b1-3)Gal(b1-4)GlcNAc
Outline: as §1

[12] = molecular target: GlcNAc(b1-3)Gal(b1-4)GlcNAc(b1-3)Gal(b1-4)GlcNAc(b1-2)Man(a1-3)[GlcNAc(b1-3)Gal(b1-4)GlcNAc(b1-3)Gal(b1-4)GlcNAc(b1-2)Man(a1-6)]Man(b1-4)GlcNAc(b1-4)GlcNAc
Outline: as §1

[13] = molecular target: GlcNAc(b1-3)Gal(b1-4)GlcNAc(b1-3)Gal(b1-4)GlcNAc(b1-2)Man(a1-3)[GlcNAc(b1-3)Gal(b1-4)GlcNAc(b1-3)Gal(b1-4)GlcNAc(b1-2)Man(a1-6)]Man(b1-4)GlcNAc(b1-4)[Fuc(a1-6)]GlcNAc
Outline: as §1

[14] = molecular target: GlcNAc(b1-3)Gal(b1-4)GlcNAc(b1-3)Gal(b1-4)GlcNAc(b1-2)[GlcNAc(b1-3)Gal(b1-4)GlcNAc(b1-3)Gal(b1-4)GlcNAc(b1-6)]Man(a1-6)[GlcNAc(b1-3)Gal(b1-4)GlcNAc(b1-3)Gal(b1-4)GlcNAc(b1-2)Man(a1-3)]Man(b1-4)GlcNAc(b1-4)[Fuc(a1-6)]GlcNAc
Outline: as §1

[15] = molecular target: GlcNAc(b1-3)Gal(b1-4)GlcNAc(b1-3)Gal(b1-4)GlcNAc(b1-3)Gal(b1-4)GlcNAc(b1-2)Man(a1-3)[GlcNAc(b1-3)Gal(b1-4)GlcNAc(b1-3)Gal(b1-4)GlcNAc(b1-3)Gal(b1-4)GlcNAc(b1-2)Man(a1-6)]Man(b1-4)GlcNAc(b1-4)GlcNAc
Outline: as §1

[16] = molecular target: GlcNAc(b1-3)Gal(b1-4)GlcNAc(b1-3)Gal(b1-4)GlcNAc(b1-3)Gal(b1-4)GlcNAc(b1-2)Man(a1-3)[GlcNAc(b1-3)Gal(b1-4)GlcNAc(b1-3)Gal(b1-4)GlcNAc(b1-3)Gal(b1-4)GlcNAc(b1-2)Man(a1-6)]Man(b1-4)GlcNAc(b1-4)[Fuc(a1-6)]GlcNAc
Outline: as §1

[17] = molecular target: GlcNAc(b1-3)Gal(b1-4)GlcNAc(b1-3)Gal(b1-4)GlcNAc(b1-3)Gal(b1-4)GlcNAc(b1-2)[GlcNAc(b1-3)Gal(b1-4)GlcNAc(b1-3)Gal(b1-4)GlcNAc(b1-3)Gal(b1-4)GlcNAc(b1-6)]Man(a1-6)[GlcNAc(b1-3)Gal(b1-4)GlcNAc(b1-3)Gal(b1-4)GlcNAc(b1-3)Gal(b1-4)GlcNAc(b1-2)Man(a1-3)]Man(b1-4)GlcNAc(b1-4)[Fuc(a1-6)]GlcNAc
Outline: as §1

[18] = molecular target: GlcNAc(b1-3)Gal(b1-4)GlcNAc(b1-3)Gal(b1-4)GlcNAc(b1-3)Gal(b1-4)GlcNAc(b1-3)Gal(b1-4)GlcNAc(b1-2)Man(a1-3)[GlcNAc(b1-3)Gal(b1-4)GlcNAc(b1-3)Gal(b1-4)GlcNAc(b1-3)Gal(b1-4)GlcNAc(b1-3)Gal(b1-4)GlcNAc(b1-2)Man(a1-6)]Man(b1-4)GlcNAc(b1-4)GlcNAc
Outline: as §1

[19] = molecular target: GlcNAc(b1-3)Gal(b1-4)GlcNAc(b1-3)Gal(b1-4)GlcNAc(b1-3)Gal(b1-4)GlcNAc(b1-3)Gal(b1-4)GlcNAc(b1-2)Man(a1-3)[GlcNAc(b1-3)Gal(b1-4)GlcNAc(b1-3)Gal(b1-4)GlcNAc(b1-3)Gal(b1-4)GlcNAc(b1-3)Gal(b1-4)GlcNAc(b1-2)Man(a1-6)]Man(b1-4)GlcNAc(b1-4)[Fuc(a1-6)]GlcNAc
Outline: as §1

[20] = molecular target: GlcNAc(b1-3)Gal(b1-4)GlcNAc(b1-3)Gal(b1-4)GlcNAc(b1-3)Gal(b1-4)GlcNAc(b1-3)Gal(b1-4)GlcNAc(b1-2)[GlcNAc(b1-3)Gal(b1-4)GlcNAc(b1-3)Gal(b1-4)GlcNAc(b1-3)Gal(b1-4)GlcNAc(b1-3)Gal(b1-4)GlcNAc(b1-6)]Man(a1-6)[GlcNAc(b1-3)Gal(b1-4)GlcNAc(b1-3)Gal(b1-4)GlcNAc(b1-3)Gal(b1-4)GlcNAc(b1-3)Gal(b1-4)GlcNAc(b1-2)Man(a1-3)]Man(b1-4)GlcNAc(b1-4)[Fuc(a1-6)]GlcNAc
Outline: as §1

B1: AAL (Agrocybe aegerita), Q6WY08 (protein)
chain: MQGVNIYNISAGTSVDLAAPVTTGDIVTFFSSALNLNAGAGNPNNTTLNLFAENGAYLLHIAFRLQENVIIFNSRQPDGPWLVEQRVSDVANQFAGIDGKAMVTVFDHGDKYQVVINEKTVIQYTKQISGLTLSLSYNATEETSIFSTVVEAVTYTGLALEHHHHHH
glycan array binding signal (z-score) [1]: -0.12
glycan array binding signal (z-score) [2]: -0.159
glycan array binding signal (z-score) [3]: -0.159
glycan array binding signal (z-score) [4]: -0.106
glycan array binding signal (z-score) [5]: -0.163
glycan array binding signal (z-score) (GlcNAc(b1-3)Fuc): -0.145
glycan array binding signal (z-score) (GlcNAc(b1-3)Gal): -0.154
glycan array binding signal (z-score) [6]: -0.139
glycan array binding signal (z-score) (GlcNAc(b1-3)Gal(b1-4)Glc): -0.152
glycan array binding signal (z-score) [7]: -0.139
glycan array binding signal (z-score) [8]: -0.126
glycan array binding signal (z-score) [9]: -0.118
glycan array binding signal (z-score) [10]: -0.091
glycan array binding signal (z-score) [11]: -0.164
glycan array binding signal (z-score) [12]: -0.13
glycan array binding signal (z-score) [13]: -0.094
glycan array binding signal (z-score) [14]: -0.128
glycan array binding signal (z-score) [15]: -0.127
glycan array binding signal (z-score) [16]: -0.085
glycan array binding signal (z-score) [17]: -0.05
glycan array binding signal (z-score) [18]: -0.085
glycan array binding signal (z-score) [19]: -0.141
glycan array binding signal (z-score) [20]: -0.114
